# Values joined by “and” are separate entries in the source; they are usually repeats but may differ in a detail not shown here. Equal entries are not always repeated. Structures can show the parent of a compound that is named as a salt. The campaign covered roughly 5,800 compounds. About 620 (11%) showed activity.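 The calls were made as follows: active = score above a cut-off or among the top three wells of a plate; in these data no inactive exceeds 0.85.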 The list shows a part of the results, in another mix than the full data.
# Tested on: primary human hepatic stellate cells (donor 1)
# Test: scaled lipid accumulation score (0 = DMSO-like, 1 = nortriptyline-like); higher = stronger HSC inactivation (lipid re-accumulation), active = hit call of the paper
# Conditions: 48 h
# Method: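 Primary lipid accumulation screen in primary human hepatic stellate cell myofibroblasts (donor 1, passage 8) in 384-well plates. 100 nL of library compound was pin-transferred into 30 µL medium in duplicate, and cells were treated for 48 h. The 'Scaled' score combines distance from plate baseline, toxicity and reproducibility penalties, and is normalised to nortriptyline (positive) and DMSO (negative) controls on each plate. A hit is defined as scaled >0.85 or among the top 3 wells per plate.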
# [1] = library stock concentration: 3.33 mM
# [2] = library stock concentration: 10 mM
# [3] = library stock concentration: 5.9 mM
# [4] = library stock concentration: 1 mM
compound,measurement,setting,value
Cc1[nH]c(=O)c(C#N)cc1-c1ccncc1 [Milrinone],scaled lipid accumulation score,,inactive: ≤ 0
same,scaled lipid accumulation score,[1],inactive: 0.027
same,scaled lipid accumulation score,library stock concentration: 9.5 mM,inactive: 0.029
same,scaled lipid accumulation score,[2],inactive: ≤ 0 and inactive: 0.237
same,scaled lipid accumulation score,library stock concentration: 23.7 mM,inactive: ≤ -0.016
CC(C)[C@H](CO)Nc1nc(Nc2cccc(Cl)c2)c2ncn(C(C)C)c2n1 [Purvalanol A],scaled lipid accumulation score,[1],inactive: ≤ 0
same,scaled lipid accumulation score,[2],inactive: 0.148
CCNC(=O)C1=C(c2ccc(OC)cc2)C(=C2C=C(Cl)C(O)=CC2=O)NN1,scaled lipid accumulation score,[2],active: 0.897
CCCOc1ccc(/C=C2/SC(=O)NC2=O)cc1 [PIM1/2 Kinase Inhibitor VI],scaled lipid accumulation score,[1],inactive: 0.001
O=C(Nc1ccccc1)c1ccccc1O [Salicylanilide],scaled lipid accumulation score,[1],inactive: ≤ 0
same,scaled lipid accumulation score,library stock concentration: 9.4 mM,inactive: 0.019
same,scaled lipid accumulation score,[2],inactive: 0.041
NC(=O)N1c2ccccc2CC(O)c2ccccc21 (configuration not stated) [Licarbazepine],scaled lipid accumulation score,[2],inactive: 0.008
COc1cc(/C=C/C(=O)N2CCC=CC2=O)cc(OC)c1OC [Piperlongumine],scaled lipid accumulation score,,inactive: 0.77
CN(C)c1ccc2nc3ccc(=[N+](C)C)cc-3sc2c1 [Methylene blue],scaled lipid accumulation score,[3],inactive: 0.252
COc1ccc(C2C(=O)c3ccccc3C2=O)cc1 [Anisindione],scaled lipid accumulation score,library stock concentration: 7.9 mM,inactive: ≤ 0
same,scaled lipid accumulation score,[2],inactive: ≤ 0
CCc1nc(-c2cccc(C)c2)c(-c2ccnc(NC(=O)c3ccccc3)c2)s1,scaled lipid accumulation score,library stock concentration: 80 uM,inactive: 0.072
same,scaled lipid accumulation score,library stock concentration: 400 uM,inactive: ≤ 0 and inactive: ≤ -0.005
same,scaled lipid accumulation score,library stock concentration: 2 mM,inactive: ≤ 0 and inactive: ≤ -0.005
same,scaled lipid accumulation score,[1],inactive: ≤ 0
same,scaled lipid accumulation score,[2],inactive: ≤ 0 and inactive: 0.036 and inactive: 0.188
Cc1cccc(C)c1NC(=O)C1CCCCN1C (configuration not stated),scaled lipid accumulation score,[2],inactive: ≤ 0
Cc1cccc(C)c1NC(=O)C1CCCCN1C (configuration not stated) [Mepivacaine HCl],scaled lipid accumulation score,[1],inactive: 0.001
same,scaled lipid accumulation score,[2],inactive: 0.079
Cc1cccc(C)c1NC(=O)C1CCCCN1C (configuration not stated) [Mepivacaine hydrochloride],scaled lipid accumulation score,library stock concentration: 7.1 mM,inactive: 0.247
same,scaled lipid accumulation score,[2],inactive: 0.119
CN1C(C(=O)Nc2ccccn2)=C(O)c2sccc2S1(=O)=O [Tenoxicam],scaled lipid accumulation score,,inactive: ≤ 0
same,scaled lipid accumulation score,[1],inactive: ≤ 0
same,scaled lipid accumulation score,[3],inactive: ≤ 0
same,scaled lipid accumulation score,[2],inactive: ≤ 0
N#Cc1ccc2[nH]cc(CCCCN3CCN(c4ccc5oc(C(N)=O)cc5c4)CC3)c2c1 [Vilazodone HCl],scaled lipid accumulation score,[1],inactive: 0.512
CC(C)OC(=O)CCC/C=C\C[C@@H]1[C@@H](/C=C/[C@@H](O)CCc2ccccc2)[C@H](O)C[C@@H]1O [17-phenyl trinor Prostaglandin F2.alpha. isopropyl ester],scaled lipid accumulation score,[4],inactive: ≤ 0
CC(=O)Oc1ccc2c(c1)CC[C@@H]1[C@@H]2CC[C@]2(C)[C@@H](OC(C)=O)CC[C@@H]12 [Estradiol diacetate],scaled lipid accumulation score,[2],inactive: ≤ 0
Cc1ncc([N+](=O)[O-])n1CC(O)CCl (configuration not stated),scaled lipid accumulation score,[2],inactive: ≤ 0
Cc1ncc([N+](=O)[O-])n1CC(O)CCl (configuration not stated) [Ornidazole],scaled lipid accumulation score,,inactive: 0.004
same,scaled lipid accumulation score,[1],inactive: ≤ 0
same,scaled lipid accumulation score,library stock concentration: 9.1 mM,inactive: ≤ 0
same,scaled lipid accumulation score,[2],inactive: 0.055
O=C(CCCC[C@@H]1SC[C@@H]2NC(=O)N[C@@H]21)NCCCC[C@H](NC(=O)CCN1C(=O)C=CC1=O)C(=O)O [3-(N-Maleimidopropionyl)-biocytin],scaled lipid accumulation score,[4],inactive: ≤ 0
C[C@]12CC[C@H]3C(=CCc4cc(O)ccc43)[C@@H]1CCC2=O [Equilin],scaled lipid accumulation score,,inactive: 0.045
same,scaled lipid accumulation score,library stock concentration: 7.5 mM,inactive: ≤ 0
same,scaled lipid accumulation score,[2],inactive: 0.026
C[C@]12C=CC(=O)C=C1CC[C@@H]1[C@@H]2[C@@H](O)C[C@@]2(C)[C@H]1CC[C@]2(O)C(=O)COP(=O)(O)O,scaled lipid accumulation score,[2],inactive: ≤ 0
N=C(N)N,scaled lipid accumulation score,[2],inactive: ≤ 0
N=C(N)N [Guanidine HCl],scaled lipid accumulation score,[1],inactive: ≤ 0
same,scaled lipid accumulation score,[2],inactive: ≤ -0.001
NC(N)=NCCNS(=O)(=O)c1cccc2cnccc12,scaled lipid accumulation score,library stock concentration: 17 mM,inactive: 0.047
"NC(N)=NCCNS(=O)(=O)c1cccc2cnccc12 [HA 1004, Dihydrochloride]",scaled lipid accumulation score,[1],inactive: ≤ 0
C=C[C@H]1CN2CC[C@H]1C[C@@H]2[C@@H](O)c1ccnc2ccc(OC)cc12 [Quinidine gluconate],scaled lipid accumulation score,[2],inactive: 0.228
C=C[C@H]1CN2CC[C@H]1C[C@@H]2[C@@H](O)c1ccnc2ccc(OC)cc12 [Quinidine sulfate],scaled lipid accumulation score,[2],inactive: 0.364
C=C[C@H]1CN2CC[C@H]1C[C@@H]2[C@@H](O)c1ccnc2ccc(OC)cc12 [Quinidine hydrochloride monohydrate],scaled lipid accumulation score,,inactive: 0.282
same,scaled lipid accumulation score,[2],inactive: 0.436
CNC(=O)[C@H]1O[C@@H](n2cnc3c(NCc4cccc(I)c4)ncnc32)[C@H](O)[C@@H]1O,scaled lipid accumulation score,[2],inactive: 0.186 and inactive: 0.035
CCCCC[C@H](O)/C=C/[C@@H]1[C@H]2C[C@@H](CCCCC(=O)O)O[C@H]2C[C@H]1O [6.alpha.-Prostaglandin I1],scaled lipid accumulation score,[4],inactive: 0.002
c1ccc(CN(CC2=NCCN2)c2ccccc2)cc1 [Antazoline phosphate],scaled lipid accumulation score,[2],inactive: 0.143
c1ccc(CN(CC2=NCCN2)c2ccccc2)cc1 [Antazoline HCl],scaled lipid accumulation score,[1],inactive: ≤ 0
same,scaled lipid accumulation score,[2],inactive: 0.363
c1ccc(CN(CC2=NCCN2)c2ccccc2)cc1 [Antazoline hydrochloride],scaled lipid accumulation score,,inactive: 0.544
same,scaled lipid accumulation score,[2],inactive: 0.11
CN(C)Cc1ccc(S(=O)(=O)n2ccc(/C=C/C(=O)NO)c2)cc1 [Resminostat],scaled lipid accumulation score,[1],inactive: 0.499
same,scaled lipid accumulation score,[2],inactive: 0.806
Nc1ncnc2n[nH]c(Nc3ccc(F)cc3)c12,scaled lipid accumulation score,[4],inactive: ≤ 0
same,scaled lipid accumulation score,[1],inactive: ≤ -0.009
same,scaled lipid accumulation score,[2],inactive: 0.176 and inactive: ≤ 0 and inactive: ≤ -0.001
CC[C@H](C)C[C@H](C)CCCCCCCCC(=O)N[C@H]1C[C@@H](O)[C@@H](NCCN)NC(=O)[C@@H]2[C@@H](O)CCN2C(=O)[C@H]([C@H](O)CCN)NC(=O)[C@H]([C@H](O)[C@@H](O)c2ccc(O)cc2)NC(=O)[C@@H]2C[C@@H](O)CN2C(=O)[C@H]([C@@H](C)O)NC1=O [Caspofungin Acetate],scaled lipid accumulation score,[1],inactive: ≤ 0
same,scaled lipid accumulation score,[2],inactive: ≤ 0

# — the supplement of paper PMC9135407
